Test results reported in PubChem BioAssay AID1508624 (National Center for Advancing Translational Sciences (NCATS), 2021).
Screen size: about 48,000 compounds; about 120 (0.25%) were called active. Inconclusive results (about 4%) are left out. Calls follow the shape of the dose curve; as a rule, active = well fitted activation curve with a large enough effect; inconclusive = small, poorly fitted or top-dose-only effect, or another doubt; inactive = no such curve, though single readings can be large or run the other way. The list shows a part of the results.

assay: Primary qHTS for Identification of Small Molecule Activators of Huntingtin-Antisense Promoter Activity; details: HEK293 HTT-AS promoter firefly luciferase reporter (activity 0% = vehicle and -100% = no light), 24 h; series mostly up to 57.5 µM; activity change, positive = activation: at the top concentration; also: nearly all actives have a fitted effect of over 55% in size
Summary of the method: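 HEK293 luciferase promoter-reporter cells (2,500/well) plated 24 h, then compounds added at up to 57.5 uM final for 24 h at 37 °C. Firefly luminescence by Dual-Glo, normalized to vehicle (0%) and zero RLU (-100%).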

Activity change, positive = activation, inactive:
CCCCc1ccc(-n2nc3cc(C)c(NC(=O)Cc4ccccc4)cc3n2)cc1 -2.34%, Cc1ccc2cccc(NC(=O)COc3ccccc3[N+](=O)[O-])c2n1 -0.477%, CCN(CC)c1ccc(NC(=O)CSc2nnc(C)c(=O)[nH]2)cc1 -17.2%, C=CC(=O)Nc1cccc(Oc2nc(Nc3ccc(N4CCN(C)CC4)cc3)ncc2Cl)c1 -33.6%, CCCN(CCC)C(=O)CSc1nnc2cc(C)c3cc(C)cc(C)c3n12 -11.3%, O=C(Nc1cc(Cl)cc(Cl)c1)c1ccc(F)c(S(=O)(=O)NC2CCCC2)c1 -16.9%, Cc1cccc(CN2C(=O)c3ccccc3Sc3ccc(C(=O)N4CCCC4)cc32)c1 -37.7%, CCOC(=O)c1c(NC(=O)COc2ccccc2F)sc2c1CCCC2 -1.76%, COCCN1C(=O)c2[nH]nc(-c3ccccc3O)c2C1c1ccc(OCc2ccccc2)c(OC)c1 (stereo unspecified) -37.5%, CCc1ccc(N(CC)C(=O)c2ccc3c(=O)n4c(nc3c2)CCCCC4)cc1 -24.3%, CCn1c(C(=O)N2CCC(C(=O)NCCc3ccccc3)CC2)cc2sccc21 -8.39%, CCC(Sc1nnc(-c2ccc(OC)cc2)c(-c2ccc(OC)cc2)n1)C(=O)NC1CCCCC1 (stereo unspecified) -0.717%, Cc1ccc(-n2c3nc(=O)n(C)c(=O)c-3cc3c(Cl)cccc32)c(C)c1 -13.1%, Cc1ccc(NS(=O)(=O)c2ccc(NC(=O)N3CCCC3)cc2)cc1C -6.23%, CC1CCCN(S(=O)(=O)c2ccc(NC(=O)c3nc(SC(C)C)ncc3Cl)cc2)C1 (stereo unspecified) -20.6%, CCCCN(Cc1ccccc1)C(=O)c1oc(=O)c2ccccc2c1-c1ccc(C)cc1 -50.1%, COc1ccc(N2CC(NC(=O)c3ccc(S(=O)(=O)N4CCCC4)cc3)CC2=O)cc1 (stereo unspecified) -17.9%, CCOC(=O)c1ccc(NC(=O)C(CC)Sc2nc3ncccc3[nH]2)cc1 (stereo unspecified) -14.1%, COc1ccc(-n2nc(C(=O)N3CCN(c4ccccc4OC)CC3)c3c4ccccc4n(C)c3c2=O)cc1 -0.364%, COc1cccc(N2CC(NC(=O)/C=C\c3ccc4c(c3)OCO4)CC2=O)c1 (stereo unspecified) -9.84%, Cc1ccc(C(=O)N2CCC(c3c[nH]c4ccccc34)(c3c[nH]c4ccccc34)CC2)cc1 -35.9%, Cn1nccc1C(=O)NCc1ccc2c(c1)CCN2C(=O)c1ccc(F)cc1 -12%, CN1[C@@H]2CCC[C@@H]1CC(NC(=O)c1nn(C)c3ccccc13)C2 (stereo partly specified) -8.9%, COc1cccc(CNC(=O)c2ccc(Cn3c(SCc4ccccc4)nc4cccnc43)cc2)c1 -4.79%, COc1cc(Cl)ccc1Nc1ncc(C(=O)N2CCN(c3ccccc3OC)CC2)c2ccccc12 -5.22%, COc1ccccc1Nc1cc(C(=O)NCCCN(C)c2ccccc2)c2ccccc2n1 -26.9%, O=C(CSc1nc(-c2ccccc2)nc2c1CCCC2)c1ccc(F)cc1 -11.2%, CCC(=O)N1c2ccc(S(=O)(=O)NCc3cccc(OC)c3)cc2CC1C (stereo unspecified) -22.8%, Cc1ccc(S(=O)(=O)c2nc(-c3ccco3)oc2SC(C)c2ccccc2)cc1 (stereo unspecified) -25.9%, COc1cc(NC(=O)CCc2c(C)nc3nc(-c4cc(OC)cc(OC)c4)nn3c2C)cc(OC)c1 -17.1%, CCCCN(CC)CCNC(=O)c1cc2c(-c3ccc(Cl)cc3)nn(C)c2s1 -13.9%, Cc1nc2ccccc2n1CC(O)COc1ccc(C(=O)O)cc1 (stereo unspecified) -17.6%, COc1ccc(N(CC(=O)NCc2ccc(F)cc2)S(=O)(=O)c2c(C)n[nH]c2C)cc1 -3.49%, COc1ccc(OCCCn2c(=O)oc3ccc(C)cc32)cc1 -12.2%, O=C(CSc1nc2c(oc3ccccc32)c(=O)n1Cc1ccco1)Nc1cccc(Cl)c1 -1.23%, Cc1cn(C)c(CC(=O)Nc2cccc(Cl)c2C)c1C(=O)O -2.57%, COc1cc2c(cc1NS(=O)(=O)c1cccc(C#N)c1)n(C)c(=O)n2C -13.6%, Cc1cc(C)cc(NC(=O)CN2C(=O)c3ccccc3Sc3ccc(C(=O)N4CCOCC4)cc32)c1 -4.14%, Cc1ccc(C)c(Cn2nnc(C(=O)NCc3ccc(Cl)cc3Cl)c2N)c1 -4.23%, CCc1ccccc1NC(=O)CN1C(=O)CCc2cc(S(=O)(=O)N3CCCCC3)ccc21 -19.1%, Cc1ccc(CNC(=O)c2ccc(CSCc3ccc(Cl)cc3)o2)cc1 -16.8%, Nc1ncnc2c1ncn2[C@@H]1O[C@H](CO)[C@@H](O)[C@@H]1O -3.07%, C/C(=C(/OCCOc1ccc(Cl)cc1)c1ccc(Cl)cc1Cl)n1ccnc1 -28.2%, CCOc1ccccc1C(=O)Nc1c(NC)c2ccccc2oc1=O -7.86%, O=C(NCc1cccc(F)c1)C1=Cc2cc(Br)ccc2OC1 -14%, Cc1ccc(-n2ccnc(NCc3ccccc3)c2=O)cc1C -8.46%, O=C(Nc1cc(C(F)(F)F)ccc1Cl)c1cc2nc(-c3ccc4c(c3)OCO4)cc(C(F)(F)F)n2n1 13.7%, Cn1c(=O)oc2cc(S(=O)(=O)N3CCCC(C(=O)Nc4ccc(Br)cc4F)C3)ccc21 (stereo unspecified) -25.9%, COC(=O)c1cc(NC(=O)Cn2nc(C)n3cccc3c2=O)cc(C(=O)OC)c1 -0.559%, CCC(C)NC(=O)c1ccc(-n2c(-c3ccccc3)cc3c2CCCC3)cc1 (stereo unspecified) 17.5%, Cc1ccc(-c2c(C(=O)NCc3ccccc3)oc(=O)c3ccccc23)cc1 -19.5%, CCOC(=O)C1=C(CS(=O)(=O)c2ccc(Br)cc2)NC(=O)NC1c1ccccc1 (stereo unspecified) -21.1%, Cc1ccccc1CNC(=O)c1ccc(-c2nc(CS(=O)(=O)c3ccccc3)c(C)o2)cc1 -41.8%, CC(=O)c1c(C)oc2ccc(N(C(=O)Oc3ccccc3)S(=O)(=O)c3ccc(C(C)(C)C)cc3)cc12 -37%, CCc1cccc(C)c1NC(=O)c1cc(C)nc2c1c(C)nn2-c1cccc(Cl)c1C -8.45%, COc1ccc(C)cc1NC(=O)CN(c1cc(C(F)(F)F)ccc1Cl)S(C)(=O)=O -30.8%, COc1cc(NC(=O)c2cc(Cl)c(OC)c(Cl)c2)ccc1NC(=O)c1cc2ccccc2o1 -7.33%, Cc1cccc(C(=O)NCCc2sc(-c3ccccc3)nc2C)c1 -17.9%, CCOC(=O)c1sc2ccccc2c1S(=O)(=O)Nc1cccc(C(F)(F)F)c1 -38.5%, Cc1coc2c1c(C)cc1oc(=O)cc(C)c12 -7.51%, CCCCN(C)C(=O)C(Cc1ccccc1)NS(=O)(=O)c1ccc2c(c1)c(=O)n(C)c(=O)n2C (stereo unspecified) -30.2%
